Laboratory results taken from article PMC12820563, “FoxP3 forms a head-to-head dimer in vivo and stabilizes its multimerization on adjacent microsatellites”.
Some of the results follow.

What follows are sequences tested against T1, MBP-FoxP1dN (Mus musculus, UniProt P58462 326-579) (assay: PD-seq (MBP pull-down with sequencing); 20 mM Tris-HCl pH 7.5, 100 mM NaCl, 1.5 mM MgCl2, 0.4 uM protein, 0.1 uM dsDNA library, 30 min, room temperature, amylose pull-down; high values mean tight binding). Conditions: protein: recombinant; tags: His6-MBP; chain copies: 2; dsDNA, one strand shown.
T1 sequence: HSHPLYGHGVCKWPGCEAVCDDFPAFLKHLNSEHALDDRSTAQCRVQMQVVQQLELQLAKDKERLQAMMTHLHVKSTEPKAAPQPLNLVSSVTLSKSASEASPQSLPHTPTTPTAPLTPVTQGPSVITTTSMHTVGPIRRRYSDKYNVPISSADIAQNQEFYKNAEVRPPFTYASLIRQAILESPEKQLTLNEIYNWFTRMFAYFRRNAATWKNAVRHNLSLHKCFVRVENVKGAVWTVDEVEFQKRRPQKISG
Procedure, shortened: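 Binding is given as reads-per-million enrichment, pull-down over input, with replicates pooled. The bait was an N-terminus-lacking mouse FoxP3 or FoxP1 fragment with a His6-MBP tag, expressed in E. coli and used at 0.4 µM with 0.1 µM Klenow-filled degenerate double-stranded DNA library for 30 min at room temperature in Tris pH 7.5 buffer with NaCl and MgCl2. Amylose resin pull-down with three washes was followed by proteinase K release, PCR barcoding and Illumina sequencing.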

Question: “GATGATTGTTCTCCCAGCTGATGAATTCTTACCATCGAGTAAACAAATTTTCCTAATCTTTCTGTTCAAGCGCCATCTAC” was tested. Which binding signal did it give?
Answer: The binding signal was 1 RPM ratio (pull-down/input).

Question: For “GATGATTGTTCTCCCAGCTGATGAATTACCCAGTTCGAGTAAACAAATTTTCCTAATCTTTCTGTTCAAGCGCCATCTAC”, which binding signal is on record?
Answer: The binding signal was 0.863 RPM ratio (pull-down/input).

Question: With “GATGATTGTTCTCCCAGCTGATGAATTCTGCCGGTCGAGTAAACAAATTTTCCTAATCTTTCTGTTCAAGCGCCATCTAC” as the sequence, how does the binding signal read?
Answer: Its binding signal is 0.736 RPM ratio (pull-down/input).

Question: Which binding signal does the source give for “GATGATTGTTCTCCCAGCTGATGAATTTTAGTCTTCGAGTAAACAAATTTTCCTAATCTTTCTGTTCAAGCGCCATCTAC” here?
Answer: The binding signal was 0.829 RPM ratio (pull-down/input).

Question: “GATGATTGTTCTCCCAGCTGATGAATTTGCTTTGTCGAGTAAACAAATTTTCCTAATCTTTCTGTTCAAGCGCCATCTAC” was tested. Which binding signal did it give?
Answer: The binding signal was 1.16 RPM ratio (pull-down/input).

Question: For “GATGATTGTTCTCCCAGCTGATGAATTCACTATGTCGAGTAAACAAATTTTCCTAATCTTTCTGTTCAAGCGCCATCTAC”, which binding signal is on record?
Answer: Its binding signal is 0.903 RPM ratio (pull-down/input).

Question: Which binding signal does the source give for “GATGATTGTTCTCCCAGCTGATGAATTGATCGCGTCGAGTAAACAAATTTTCCTAATCTTTCTGTTCAAGCGCCATCTAC” here?
Answer: Its binding signal is 1.05 RPM ratio (pull-down/input).

Question: For “GATGATTGTTCTCCCAGCTGATGAATTAATAATCTCGAGTAAACAAATTTTCCTAATCTTTCTGTTCAAGCGCCATCTAC”, which binding signal is on record?
Answer: The binding signal was 1.06 RPM ratio (pull-down/input).

Question: “GATGATTGTTCTCCCAGCTGATGAATTGCCTGGATCGAGTAAACAAATTTTCCTAATCTTTCTGTTCAAGCGCCATCTAC” was tested. Which binding signal did it give?
Answer: The binding signal was 0.884 RPM ratio (pull-down/input).

Question: With “GATGATTGTTCTCCCAGCTGATGAATTGGTTATATCGAGTAAACAAATTTTCCTAATCTTTCTGTTCAAGCGCCATCTAC” as the sequence, how does the binding signal read?
Answer: The binding signal was 1.1 RPM ratio (pull-down/input).

Question: With “GATGATTGTTCTCCCAGCTGATGAATTGCTTGGGTCGAGTAAACAAATTTTCCTAATCTTTCTGTTCAAGCGCCATCTAC” as the sequence, how does the binding signal read?
Answer: The binding signal was 0.965 RPM ratio (pull-down/input).

Question: “GATGATTGTTCTCCCAGCTGATGAATTACTCATGTCGAGTAAACAAATTTTCCTAATCTTTCTGTTCAAGCGCCATCTAC” was tested. Which binding signal did it give?
Answer: Its binding signal is 1.04 RPM ratio (pull-down/input).

Question: Which binding signal does the source give for “GATGATTGTTCTCCCAGCTGATGAATTAATAGTTTCGAGTAAACAAATTTTCCTAATCTTTCTGTTCAAGCGCCATCTAC” here?
Answer: Its binding signal is 0.967 RPM ratio (pull-down/input).

Question: How did the binding signal turn out when “GATGATTGTTCTCCCAGCTGATGAATTCCTACATTCGAGTAAACAAATTTTCCTAATCTTTCTGTTCAAGCGCCATCTAC” was run?
Answer: Its binding signal is 0.987 RPM ratio (pull-down/input).

Question: Which binding signal does the source give for “GATGATTGTTCTCCCAGCTGATGAATTTCGTCTTTCGAGTAAACAAATTTTCCTAATCTTTCTGTTCAAGCGCCATCTAC” here?
Answer: The binding signal was 0.934 RPM ratio (pull-down/input).

Question: Which binding signal does the source give for “GATGATTGTTCTCCCAGCTGATGAATTAGACTCGTCGAGTAAACAAATTTTCCTAATCTTTCTGTTCAAGCGCCATCTAC” here?
Answer: Its binding signal is 0.869 RPM ratio (pull-down/input).

Question: “GATGATTGTTCTCCCAGCTGATGAATTTCTCAGGTCGAGTAAACAAATTTTCCTAATCTTTCTGTTCAAGCGCCATCTAC” was tested. Which binding signal did it give?
Answer: Its binding signal is 0.7 RPM ratio (pull-down/input).

Question: Which binding signal does the source give for “GATGATTGTTCTCCCAGCTGATGAATTATAGGCGTCGAGTAAACAAATTTTCCTAATCTTTCTGTTCAAGCGCCATCTAC” here?
Answer: Its binding signal is 0.934 RPM ratio (pull-down/input).

Question: Which binding signal does the source give for “GATGATTGTTCTCCCAGCTGATGAATTTAGAGCATCGAGTAAACAAATTTTCCTAATCTTTCTGTTCAAGCGCCATCTAC” here?
Answer: Its binding signal is 1.13 RPM ratio (pull-down/input).

Question: How did the binding signal turn out when “GATGATTGTTCTCCCAGCTGATGAATTTTCGGTCTCGAGTAAACAAATTTTCCTAATCTTTCTGTTCAAGCGCCATCTAC” was run?
Answer: The binding signal was 0.816 RPM ratio (pull-down/input).

Question: “GATGATTGTTCTCCCAGCTGATGAATTCTAATAATCGAGTAAACAAATTTTCCTAATCTTTCTGTTCAAGCGCCATCTAC” was tested. Which binding signal did it give?
Answer: Its binding signal is 1.19 RPM ratio (pull-down/input).

Question: “GATGATTGTTCTCCCAGCTGATGAATTCGTGTGGTCGAGTAAACAAATTTTCCTAATCTTTCTGTTCAAGCGCCATCTAC” was tested. Which binding signal did it give?
Answer: Its binding signal is 0.967 RPM ratio (pull-down/input).

Question: “GATGATTGTTCTCCCAGCTGATGAATTTCGGTAGTCGAGTAAACAAATTTTCCTAATCTTTCTGTTCAAGCGCCATCTAC” was tested. Which binding signal did it give?
Answer: The binding signal was 0.768 RPM ratio (pull-down/input).

Question: How did the binding signal turn out when “GATGATTGTTCTCCCAGCTGATGAATTGACGAGCTCGAGTAAACAAATTTTCCTAATCTTTCTGTTCAAGCGCCATCTAC” was run?
Answer: The binding signal was 0.883 RPM ratio (pull-down/input).

Question: With “GATGATTGTTCTCCCAGCTGATGAATTCTCTCCGTCGAGTAAACAAATTTTCCTAATCTTTCTGTTCAAGCGCCATCTAC” as the sequence, how does the binding signal read?
Answer: The binding signal was 0.809 RPM ratio (pull-down/input).

Question: For “GATGATTGTTCTCCCAGCTGATGAATTTCATTATTCGAGTAAACAAATTTTCCTAATCTTTCTGTTCAAGCGCCATCTAC”, which binding signal is on record?
Answer: The binding signal was 0.95 RPM ratio (pull-down/input).

Question: How did the binding signal turn out when “GATGATTGTTCTCCCAGCTGATGAATTCTAACTTTCGAGTAAACAAATTTTCCTAATCTTTCTGTTCAAGCGCCATCTAC” was run?
Answer: The binding signal was 0.935 RPM ratio (pull-down/input).

Question: “GATGATTGTTCTCCCAGCTGATGAATTAACCAAGTCGAGTAAACAAATTTTCCTAATCTTTCTGTTCAAGCGCCATCTAC” was tested. Which binding signal did it give?
Answer: Its binding signal is 0.826 RPM ratio (pull-down/input).

Question: With “GATGATTGTTCTCCCAGCTGATGAATTCTATGACTCGAGTAAACAAATTTTCCTAATCTTTCTGTTCAAGCGCCATCTAC” as the sequence, how does the binding signal read?
Answer: The binding signal was 0.968 RPM ratio (pull-down/input).

Question: “GATGATTGTTCTCCCAGCTGATGAATTCTGATTGTCGAGTAAACAAATTTTCCTAATCTTTCTGTTCAAGCGCCATCTAC” was tested. Which binding signal did it give?
Answer: The binding signal was 1.19 RPM ratio (pull-down/input).

Question: How did the binding signal turn out when “GATGATTGTTCTCCCAGCTGATGAATTAAAGCTCTCGAGTAAACAAATTTTCCTAATCTTTCTGTTCAAGCGCCATCTAC” was run?
Answer: Its binding signal is 0.891 RPM ratio (pull-down/input).

Question: With “GATGATTGTTCTCCCAGCTGATGAATTAATGTCATCGAGTAAACAAATTTTCCTAATCTTTCTGTTCAAGCGCCATCTAC” as the sequence, how does the binding signal read?
Answer: The binding signal was 1.3 RPM ratio (pull-down/input).

Question: How did the binding signal turn out when “GATGATTGTTCTCCCAGCTGATGAATTACGAGAGTCGAGTAAACAAATTTTCCTAATCTTTCTGTTCAAGCGCCATCTAC” was run?
Answer: The binding signal was 0.91 RPM ratio (pull-down/input).

Question: “GATGATTGTTCTCCCAGCTGATGAATTTTAGGCTTCGAGTAAACAAATTTTCCTAATCTTTCTGTTCAAGCGCCATCTAC” was tested. Which binding signal did it give?
Answer: Its binding signal is 0.904 RPM ratio (pull-down/input).

Question: Which binding signal does the source give for “GATGATTGTTCTCCCAGCTGATGAATTTCACAGATCGAGTAAACAAATTTTCCTAATCTTTCTGTTCAAGCGCCATCTAC” here?
Answer: The binding signal was 0.838 RPM ratio (pull-down/input).

Question: For “GATGATTGTTCTCCCAGCTGATGAATTAGTCAATTCGAGTAAACAAATTTTCCTAATCTTTCTGTTCAAGCGCCATCTAC”, which binding signal is on record?
Answer: Its binding signal is 1.09 RPM ratio (pull-down/input).

Question: How did the binding signal turn out when “GATGATTGTTCTCCCAGCTGATGAATTGCCATCCTCGAGTAAACAAATTTTCCTAATCTTTCTGTTCAAGCGCCATCTAC” was run?
Answer: The binding signal was 0.928 RPM ratio (pull-down/input).

Question: Which binding signal does the source give for “GATGATTGTTCTCCCAGCTGATGAATTTACGGCTTCGAGTAAACAAATTTTCCTAATCTTTCTGTTCAAGCGCCATCTAC” here?
Answer: The binding signal was 1.14 RPM ratio (pull-down/input).

Question: For “GATGATTGTTCTCCCAGCTGATGAATTATGGGAGTCGAGTAAACAAATTTTCCTAATCTTTCTGTTCAAGCGCCATCTAC”, which binding signal is on record?
Answer: The binding signal was 0.976 RPM ratio (pull-down/input).

Question: How did the binding signal turn out when “GATGATTGTTCTCCCAGCTGATGAATTTCACACGTCGAGTAAACAAATTTTCCTAATCTTTCTGTTCAAGCGCCATCTAC” was run?
Answer: Its binding signal is 0.844 RPM ratio (pull-down/input).
